According to patent publication US20130273053A1 (UNIVERSITY OF LEICESTER, published 2013):
Positions count from the first letter of the chain named.

T1: human MASP-1 (human, UniProt P48740 20-699)
T1 sequence: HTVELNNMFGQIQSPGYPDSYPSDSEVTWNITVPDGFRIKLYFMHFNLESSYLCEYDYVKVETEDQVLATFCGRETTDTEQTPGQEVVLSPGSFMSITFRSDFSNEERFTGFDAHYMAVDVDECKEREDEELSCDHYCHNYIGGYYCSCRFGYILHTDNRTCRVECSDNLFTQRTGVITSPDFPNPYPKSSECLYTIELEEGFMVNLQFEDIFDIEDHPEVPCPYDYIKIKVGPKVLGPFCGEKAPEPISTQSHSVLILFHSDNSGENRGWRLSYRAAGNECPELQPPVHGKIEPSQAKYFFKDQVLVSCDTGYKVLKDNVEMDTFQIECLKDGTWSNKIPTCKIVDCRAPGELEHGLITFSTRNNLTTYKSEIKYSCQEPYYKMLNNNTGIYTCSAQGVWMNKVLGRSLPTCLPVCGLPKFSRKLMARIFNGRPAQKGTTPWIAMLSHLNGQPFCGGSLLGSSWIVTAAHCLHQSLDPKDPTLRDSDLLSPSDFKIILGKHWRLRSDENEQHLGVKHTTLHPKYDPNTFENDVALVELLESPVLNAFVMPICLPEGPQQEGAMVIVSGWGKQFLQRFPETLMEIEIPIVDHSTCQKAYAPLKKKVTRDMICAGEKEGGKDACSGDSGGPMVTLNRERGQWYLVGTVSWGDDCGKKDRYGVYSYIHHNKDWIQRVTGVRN

B1: SGMI-1Fc (SGMI-1, linker and human IgG1-Fc) (Fc fusion)
chain: LEVTCEPGTTFKDKCNTCRCGSDGKSAFCTRKLCYQGTGGGSGSSSRS[not shown - human IgG1 Fc]
B2: SGMI-2Fc (SGMI-2, linker and human IgG1-Fc) (Fc fusion)
chain: B1 chain with F28V, R31K, K32L, L33W, Y35N

Legend:
human MASP-1 = molecular target: T1, human MASP-1; experiment: cell-based or functional assay
human MASP-2 = human MASP-2 (human, UniProt O00187 16-686); experiment: cell-based or functional assay
human MASP-2, sequence (O00187 16-686): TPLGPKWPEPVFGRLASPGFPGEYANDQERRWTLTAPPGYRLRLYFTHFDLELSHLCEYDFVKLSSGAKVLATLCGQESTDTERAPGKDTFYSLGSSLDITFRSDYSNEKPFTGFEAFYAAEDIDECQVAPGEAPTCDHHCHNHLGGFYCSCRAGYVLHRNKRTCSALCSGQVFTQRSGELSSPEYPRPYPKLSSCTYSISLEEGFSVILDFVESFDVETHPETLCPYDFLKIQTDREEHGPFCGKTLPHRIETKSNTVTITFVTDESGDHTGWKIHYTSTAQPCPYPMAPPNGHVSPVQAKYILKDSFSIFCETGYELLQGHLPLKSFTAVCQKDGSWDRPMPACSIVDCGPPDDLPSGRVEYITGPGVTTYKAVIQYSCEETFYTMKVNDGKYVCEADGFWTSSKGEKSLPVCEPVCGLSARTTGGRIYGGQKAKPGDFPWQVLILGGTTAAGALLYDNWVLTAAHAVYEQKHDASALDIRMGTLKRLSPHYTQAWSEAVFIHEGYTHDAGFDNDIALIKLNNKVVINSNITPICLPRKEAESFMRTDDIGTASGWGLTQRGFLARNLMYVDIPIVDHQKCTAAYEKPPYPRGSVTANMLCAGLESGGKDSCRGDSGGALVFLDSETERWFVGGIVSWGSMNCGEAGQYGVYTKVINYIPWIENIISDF

Row | Binder | C3b deposition from 1% normal human serum on mannan-coated ELISA wells (IC50) (human MASP-1) [nM] | C3b deposition from 1% normal human serum on mannan-coated ELISA wells (IC50) (human MASP-2) [nM]
1 | B1 | ~27 | 
2 | B2 |  | ~300
